Results reported in PubChem BioAssay AID1347073 (National Center for Advancing Translational Sciences (NCATS), 2019).
The campaign covered roughly 45,000 compounds. About 200 (0.44%) were called active. Roughly 7% stayed inconclusive and do not appear here. Calls follow the shape of the dose curve; as a rule, active = well fitted activation curve with a large enough effect; inconclusive = small, poorly fitted or top-dose-only effect; inactive = no such curve, though single readings can be large or run the other way. The list shows a part of the results.

Test: qHTS of TDP-43 Inhibitors: NCGC Sytravon Library Screen; also: 0% is about no effect; nearly all actives have a fitted effect of over 55% in size
Conditions: yeast TDP-43 toxicity rescue, BacTiter-Glo growth, 24 h; series mostly up to 46.1 µM; growth rescue (activation): at the top concentration
Procedure, shortened: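 TDP-43-expressing yeast, pregrown in raffinose, seeded at OD600 0.02 in galactose medium with compound for 24 hr at 30 deg C. Growth read by BacTiter-Glo luminescence, so rescue of toxicity appears as activation.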

SMILES	growth rescue (activation)
CNCCCOc1ccc2c(c1)CCC2	inactive: 6.68%
COc1cccc(-c2ccc3nccn3c2)c1	inactive: 17.2%
Cc1ccc(C(=O)N/N=C/C=C/c2ccccc2)cc1	inactive: -17.1%
COc1ccccc1N1CCN(C2CCCN(S(=O)(=O)c3ccccc3)C2)CC1 (centres undefined)	inactive: -10.6%
COc1ccc(-c2cc(C(=O)Nc3ccc(F)cc3F)no2)cc1	inactive: 12.2%
COc1ccc(NC(=O)COC(=O)CNS(=O)(=O)c2ccc(F)c(F)c2F)cc1OC	inactive: -1.81%
CN1CCCC(OC(=O)c2ccc(Cl)cc2)C1 (centres undefined)	inactive: -1.52%
O=C(O)CCc1ccc(S(=O)(=O)Nc2ccc(OCc3ccccc3)cc2)cc1	inactive: -3%
Cc1ccc(N=Cc2nc(-c3ccc(C)cc3)oc2O)cc1	inactive: 3.57%
O=C(CCc1ccc(Oc2cc([N+](=O)[O-])cc([N+](=O)[O-])c2)cc1)Nc1cccc(Cl)c1	inactive: 10.9%
CCc1cccc(CC)c1-n1c(SCC(=O)N2CCCc3ccccc32)nc(O)cc1=O	inactive: 20.7%
c1c2c(cc3sc(N4CCCCC4)nc13)OCO2	inactive: 10.7%
COCCNC(=O)Cn1nc(Cc2ccncc2)c2ccccc2c1=O	inactive: -11.2%
CCOC(=O)C1CCN(c2nc3ccccc3nc2C(C#N)C(=O)OC(C)COC)CC1 (centres undefined)	inactive: 6.73%
COCCN(CCOC)Cc1c(O)ccc2c1O/C(=C\c1ccco1)C2=O	inactive: -20%
Cc1cc(OCC(=O)NC(C)c2ccccc2)ccc1[N+](=O)[O-] (centres undefined)	inactive: -3.53%
COC(=O)c1ccc(Cn2nnc3sc4c(c3c2=O)CCCC4)cc1	inactive: 16.2%
O=C(CN1C(=O)CCC1=O)c1ccc(-c2ccccc2)cc1	inactive: 13.5%
CCNC(=O)C1(C)CCN(C(=O)c2ccc(N(C)C)cc2)C1 (centres undefined)	inactive: 8.08%
CC1=NCCN1S(=O)(=O)c1cccc([N+](=O)[O-])c1	inactive: -8.28%
CCC(=O)c1ccc(OCC(=O)Nc2ccc3c(c2)OCCO3)cc1	inactive: 2.34%
CCCCCC1CC(=O)N(Cc2ccc(Cl)cc2)C(=O)N1 (centres undefined)	inactive: 24.9%

SMILES	growth rescue (activation)
O=c1c2oc3ccccc3c2[nH]c(=S)n1-c1ccc(F)cc1	inactive: 21.4%
O=C(CCC(=O)N1CCN(S(=O)(=O)c2ccc(Cl)cc2)CC1)Nc1ccc2ccccc2c1	inactive: 10%
O=C(c1cccc(S(=O)(=O)N2CCc3ccccc32)c1)N1CCN(CCO)CC1	inactive: 8.14%
Cc1ccc(NC(=O)CN(C)C(=O)CSc2nnc(C)s2)cc1	inactive: -1.48%
Cc1ccccc1S(=O)(=O)NC(=O)C1(C)CCN1C(=O)Cc1ccccc1Cl (centres undefined)	inactive: -0.761%
CCc1ccc(NC(=O)c2ccc(F)c(S(=O)(=O)N(CC)c3ccccc3)c2)cc1	inactive: 21.5%
N#C/C(=C\c1ccncc1)c1nc2ccccc2[nH]1	inactive: 3.15%
CC(=O)Nc1ccc(S(=O)(=O)N2CCN(c3nnnn3-c3ccccc3)CC2)cc1	inactive: 10.5%
COCCn1nnnc1C(c1cccc(OC)c1OC)N1CCN(C(=O)c2ccco2)CC1 (centres undefined)	inactive: -0.799%
Cc1cc(C)c(C)c(S(=O)(=O)N(C)C2CCN(C)CC2)c1C	inactive: 4.58%
COc1ccc(CCNC(=O)COC(=O)/C=C/c2cc(OC)c(OC)c(OC)c2)cc1OC	inactive: 4.9%
COc1ccc(C(=O)CNc2cccc(F)c2)cc1	inactive: 17.9%
CC1CCCN(C(=O)CSc2ncccn2)C1 (centres undefined)	inactive: 10.3%
CCCCn1c(N)c(NCC)c(=O)[nH]c1=O	inactive: 8.4%
COc1ccc(S(=O)(=O)N2CCOCC2)cc1NC(=O)c1ccc(=O)[nH]c1	inactive: 9.66%
CCc1ccc(-c2nnn(CCC#N)n2)cc1	inactive: 22.3%
CC(C)(C)c1ccc(-c2nc(S(=O)(=O)c3ccccc3)c(N3CCOCC3)o2)cc1	inactive: 2.9%
CC1CCCCN1Cc1c(O)ccc2c(=O)c(-c3ccccc3)coc12 (centres undefined)	inactive: 7.12%
N#Cc1ccc(OCC(=O)OCC(=O)c2ccc[nH]2)cc1	inactive: 24.2%
CCCCC(NC(=O)COc1cc2c(c3oc(=O)cc(C)c13)CCC(C)(C)O2)C(=O)O (centres undefined)	inactive: -26.2%
O=C(OCC(=O)N1CCOCC1)c1ccc(Cl)cc1[N+](=O)[O-]	inactive: 0.15%
C=CCn1c(-c2cccc(OCC)c2)n[nH]c1=S	inactive: 22.7%

SMILES	growth rescue (activation)
Cc1nccn1CC(O)COc1ccccc1 (centres undefined)	inactive: -3.86%
COc1ccc(-c2cc(C(=O)N3CCN(c4ccc(F)cc4)CC3)no2)cc1OC	inactive: 11.8%
O=C(O)c1ccc(-c2nc3ccccc3[nH]2)cc1	inactive: -2.05%
O=S(=O)(c1ccccc1F)N1CCC(c2nc3ccccc3[nH]2)CC1	inactive: -1.9%
CN(C)S(=O)(=O)c1ccc2c(c1)C(=NO)c1cc(S(=O)(=O)N(C)C)ccc1-2	inactive: -2.63%
O=C(NC12CC3CC(CC(C3)C1)C2)N1CC2Cc3cccc(=O)n3C(C2)C1 (centres undefined)	inactive: 5.17%
CCCCS(=O)(=O)Nc1ccc(N2CCOCC2)c(S(=O)(=O)N2CCOCC2)c1	inactive: 10.6%
COc1ccc(NS(=O)(=O)c2cc([N+](=O)[O-])ccc2N/N=C/c2c(C)[nH]c3ccccc23)cc1	inactive: 23.3%
CC(C)(CN1CCN(C(c2ccccc2)c2ccccc2)CC1)NS(=O)(=O)c1ccccc1	inactive: 28.7%
Nc1c(N(CCO)C(=O)/C=C/c2ccco2)c(=O)[nH]c(=O)n1Cc1ccccc1	inactive: 9.79%
Cc1cccc(NCC(=O)N/N=C\c2ccc[nH]2)c1	inactive: 10.5%
CCN1CCN(CCCOc2ccccc2-c2ccccc2)CC1	inactive: -11.5%
COc1ccc(OCCC(=O)N2CCCCC2)cc1	inactive: 7.03%
O=C(CN(Cc1ccccc1)S(=O)(=O)c1ccc(F)cc1)NCc1ccccn1	inactive: -7.03%
CN(CCc1ccccn1)C(=O)CCC1CCCN(C(=O)c2c3c(nn2C)CCCC3)C1 (centres undefined)	inactive: 5.49%
Cc1nn(CCC(=O)N2CCN(S(=O)(=O)c3ccc(Cl)cc3)CC2)c(C)c1C	inactive: 11.4%
CCOC(=O)CSc1n[nH]c(-c2cccnc2)n1	inactive: 12.1%
COc1ccc(CN2C[C@@H](CO)O[C@@H](n3cnc4c(NCCN(C)C)ncnc43)C2)cc1	inactive: -4.12%
CC(C)(C)c1ccc(S(=O)(=O)Nc2ccc3c(c2)COC3=O)cc1	inactive: -21.5%
COc1ccc(/C=C2\CCc3ccccc3C2=O)c(OC)c1OC	inactive: 29.9%
O=c1cc(CN2CC(O)Cc3ccc4ccccc4c32)nc2sccn12 (centres undefined)	inactive: 4.71%
COc1ccc(CCNCC(O)COc2c(C)cccc2C)cc1OC (centres undefined)	inactive: -12.7%

SMILES	growth rescue (activation)
Cc1ccc(OCc2n[nH]c(=S)n2-c2ccccc2)cc1C	inactive: 12.9%
Cc1cc(C)nc(NC(=O)c2ccc(Cl)cc2)n1	inactive: 9.73%
N#Cc1ccc(C(=O)OCC(=O)N2CCCC2)cc1	inactive: -7.7%
O=P(CCCO)(Cc1ccccc1)Cc1ccccc1	inactive: -5.24%
COc1cccc(OCCOCCOc2ccc(C)cc2[N+](=O)[O-])c1	inactive: 29.1%
Cc1ccc(-c2nc3ncccc3o2)cc1NC(=O)c1ccccc1Br	inactive: 7.95%
CCCNC(=O)C1(C)CCCN(Cc2cccc(C#N)c2)C1 (centres undefined)	inactive: 6.26%
NS(=O)(=O)c1ccc(CNC(=O)c2ccc(C(=O)c3ccccc3)cc2)cc1	inactive: 13.5%
CN(c1cccc(NC(=O)c2ccc(C(C)(C)C)cc2)c1)S(C)(=O)=O	inactive: 5.55%
Cc1cccc(OCC(=O)NCC(=O)N/N=C/c2ccccc2)c1	inactive: 18.7%
CN(C)c1ccc2c3c(ccc(N(C)C)c13)COC2	inactive: 3.63%
COc1ccc(Cc2nnc(NC(=O)C3CC(=O)N(c4ccccc4)C3)s2)cc1OC (centres undefined)	inactive: -10.6%
CCCc1nnc(SCC(=O)Nc2nnc(CC)s2)n1CC1CCCO1 (centres undefined)	inactive: 4.25%
CC(/C=N/NC(=O)CN1CCN(Cc2ccc(Cl)cc2)CC1)=C\c1ccco1	inactive: 2.25%
CC(=O)Nc1ccc(CNc2nc(NCCN(C)C)nc3cc(-c4ccccc4)sc23)cc1	inactive: 7.96%
CCc1ccc(Oc2cc(Cl)nc(N)n2)cc1	inactive: 30.5%
CC(C)n1c(=O)[nH]c2cc(C(=O)Nc3ccccc3)ccc21	inactive: 12.2%
CCN1CCN(Cc2c(C)[nH]c3ccc(OC)cc3c2=O)CC1	inactive: 13.7%
O=C1NN(c2cccc(Br)c2)C(=O)/C1=C\c1ccccc1	inactive: -24%
O=C(CCCN1C(=O)/C(=C\c2cccs2)SC1=S)Nc1ccc(O)cc1	inactive: 9.93%
CC1=CC2=NC(=O)CC(C)(C(=O)N(CC(=O)NC3CCCC3)c3ccccc3F)N2C=C1 (centres undefined)	inactive: 14.6%
COc1ccc(OCC(=O)NCCNC(=O)c2ccncc2)cc1	inactive: -4.35%

SMILES	growth rescue (activation)
Cc1cc(C)c(C)c(S(=O)(=O)N2CCNCC2)c1C	inactive: 2.1%
COc1cc2c(cc1OC)/C(=C/C(=O)c1cccc([N+](=O)[O-])c1)NCC2	inactive: -1.6%
Cc1nnc(NC(=O)CSc2nnc(CC(=O)Nc3ccccc3F)n2C)s1	inactive: 8.75%
O=C(NCCc1nc2ccccc2[nH]1)/C(=C/c1ccc2c(c1)OCO2)NC(=O)c1ccccc1Cl	inactive: -0.456%
CN1CCN(C(=O)c2ccc(Cn3cc(Cl)cn3)o2)CC1	inactive: 6.94%
NS(=O)(=O)c1ccc(CCNC(=S)Nc2ccc(S(N)(=O)=O)cc2)cc1	inactive: 14.5%
O=C(CNCCN1CCOCC1)Nc1ccccc1Sc1ccccc1	inactive: -1.32%
COc1ccccc1CN1C[C@@H]2C[C@@H](c3[nH]c4ccc(C)cc4c3C)N3CCC[C@@]23C1=O	inactive: 5.59%
Cn1cc(C(=O)c2cccc(Cl)c2)cc1C#N	inactive: -5.88%
O=C(O)CCSc1ncnc2sc(-c3ccccc3)cc12	inactive: 15.4%
CCN1C(=O)N(CC)C2C1N(C(C)=O)C(=O)N2C(C)=O (centres undefined)	inactive: -5.19%
COc1ccc(CCN(C)C(=O)CCc2nnc(-c3ccccc3)o2)cc1OC	inactive: 19.9%
COc1ccc(-c2csc(N3CCC(c4ccccc4)CC3)n2)cc1	inactive: 2.66%
Cc1ccc(-c2c[n+](CC(=O)OCc3ccccc3)c3n2CCC3)cc1	inactive: 10.2%
CC(=O)Nc1ccc(NC(=O)CSc2nnc(-c3cc4ccccc4o3)n2C)cc1	inactive: 6.85%
O=C(C1=C(O)C(=O)N(Cc2ccccc2)C1c1cccnc1)c1ccco1 (centres undefined)	inactive: 23.1%
CCc1c(C(=O)N/N=C/c2ccc(OCc3ccc(F)cc3)c(OC)c2)nnn1-c1nonc1N	inactive: 16.8%
CC1CCCC(NC(=O)COC(=O)COc2ccc(C#N)cc2)C1C (centres undefined)	inactive: 15.1%
COc1ccc(C2C3=C(CC(C)(C)CC3=O)Nc3cc4c(cc32)OCO4)cc1 (centres undefined)	inactive: 29.9%
COc1cccc(CC(=O)NCC2(N3CCCCC3)CCCCC2)c1	inactive: 4.77%
CC(=O)NS(=O)(=O)c1ccc(NC(=O)c2ccc(-n3nc(C)cc3C)cc2)cc1	inactive: 9.12%
